The structures appear in SMILES notation. About 220 (0.56%) of roughly 39,000 compounds showed activity. This is one part of the list.

This passage reports relative growth results from the supplement of paper PMC9446081.
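Further: static incubation at 37 °C against the wild-type strain, values averaged over two biological replicates.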

The test system of this test is Escherichia coli K-12 BW25113. As to the kind of experiment: relative growth (OD600 normalised to plate interquartile mean) (fraction); higher = less growth inhibition, active = 0.2 or less. The following applies: 50 µM; LB; incubation time: overnight (16-24 h).
Take `Cc1noc(C)c1S(=O)(=O)N(C)C[C@H]1OCCCC[C@@H](C)Oc2ccc(NC(=O)Nc3ccc(C(F)(F)F)cc3)cc2C(=O)N([C@@H](C)CO)C[C@@H]1C`: the relative growth is inactive: 1.04. The figure for `CC(C)CCCC(C)C1CCC2C3CC=C4CC(O)CCC4(C)C3CCC12C` (stereo not drawn) is inactive: 1.02. Take `COc1ccc(S(=O)(=O)Nc2ccc3c(c2)C(=O)N([C@@H](C)CO)C[C@@H](C)[C@@H](CN(C)Cc2ccncc2)O3)cc1`: the relative growth was inactive: 0.983. The figure for `N#C[C@@H]1N[C@@H](CO)[C@@H]1c1ccccc1` is inactive: 0.981; for `CC(C)NC(=O)N(C)C[C@@H]1OCCCC[C@H](C)Oc2ccc(NS(C)(=O)=O)cc2C(=O)N([C@@H](C)CO)C[C@@H]1C` it is inactive: 0.992; for `CC(C)C[C@H]1NC(=O)[C@@H](CCCN)NC(=O)[C@H](C(C)C)NC(=O)[C@H]2CCCN2C(=O)[C@@H](Cc2ccccc2)NC(=O)[C@@H](CC(C)C)NC(=O)[C@@H](CCCN)NC(=O)[C@H](C(C)C)NC(=O)[C@H]2CCCN2C(=O)[C@@H](Cc2ccccc2)NC1=O` it is inactive: 1.01. With `N[C@H]1CCCN(c2ncccn2)C1`, the relative growth was inactive: 1.04. For `C[C@H]1CN([C@@H](C)CO)S(=O)(=O)c2ccc(C#Cc3ccc(F)cc3)cc2O[C@H]1CN(C)C(=O)c1ccccn1` the value was inactive: 1; for `CC(=O)N(C)C[C@H]1Oc2cc(C#CCN(C)C)ccc2S(=O)(=O)N([C@@H](C)CO)C[C@@H]1C`, inactive: 1. For `C=CCOC(=O)[C@H]1[C@@H]2C(=O)O[C@@H](c3ccccc3)[C@@H](c3ccccc3)N2[C@@H](c2cccc(OCCOC(=O)NCCCCCC(=O)NO)c2)[C@@]12C(=O)Nc1ccc(I)cc12` the value was inactive: 0.988; for `Cc1ccc(S(=O)(=O)Nc2ccc3c(c2)C(=O)N([C@@H](C)CO)C[C@@H](C)[C@@H](CN(C)C(=O)Nc2ccc4c(c2)OCO4)OCCCC[C@@H](C)O3)cc1`, inactive: 1.04. `Cc1noc(C)c1S(=O)(=O)Nc1ccc2c(c1)C(=O)N([C@H](C)CO)C[C@@H](C)[C@@H](CN(C)C(=O)Nc1cccc3ccccc13)OCCCC[C@@H](C)O2`: the relative growth is inactive: 1.01. Take `C[C@H]1CCCCO[C@H](CN(C)C(=O)C2CCCCC2)[C@@H](C)CN([C@@H](C)CO)C(=O)c2cc(NC(=O)c3ccccc3)ccc2O1`: the relative growth was inactive: 0.978. Consider `C[C@@H]1CCCCO[C@H](CN(C)Cc2ccncc2)[C@H](C)CN([C@H](C)CO)C(=O)c2cc(NC(=O)C3CCCCC3)ccc2O1`, for which the relative growth was inactive: 0.986. The figure for `C[C@H]1CN([C@@H](C)CO)C(=O)c2cccc(NC(=O)CCCCCC(=O)Nc3ccccc3N)c2O[C@@H]1CN(C)C(=O)Nc1ccc(C(F)(F)F)cc1` is inactive: 0.953; for `COc1cccc(S(=O)(=O)N(C)C[C@@H]2Oc3cc(C#CCN(C)C)ccc3S(=O)(=O)N([C@@H](C)CO)C[C@@H]2C)c1` it is inactive: 1.02.

With `CC(C)NC(=O)Nc1ccc2c(c1)C(=O)N([C@@H](C)CO)C[C@H](C)[C@@H](CN(C)S(=O)(=O)c1cccs1)O2`, the relative growth was inactive: 1.01. Consider `O=C1O[C@H](c2ccccc2)[C@H](c2ccccc2)N2[C@H]1[C@@H](C(=O)O)[C@]1(C(=O)Nc3ccc(Cl)cc31)[C@H]2c1ccc(F)cc1`, for which the relative growth is inactive: 0.771. For `COc1ccccc1CNC(=O)C[C@@H]1CC[C@H]2[C@@H](COC[C@@H](O)CN2C(=O)Nc2ccc(F)cc2)O1` the value was inactive: 0.966. For `CC=Cc1ccc2n(c1=O)C[C@H]1[C@H](CO)[C@@H](C(=O)NCCc3cn(C)cn3)[C@@H]2N1C(=O)C1CC1` the value was inactive: 1; for `C[C@@H]1CCCCO[C@H](CN(C)C(=O)Nc2cccc3ccccc23)[C@@H](C)CN([C@H](C)CO)C(=O)c2cc(NC(=O)Nc3ccc4c(c3)OCO4)ccc2O1`, inactive: 1.02; for `C[C@@H]1CCCCO[C@H](CN(C)C(=O)Nc2ccc(F)cc2)[C@@H](C)CN([C@H](C)CO)C(=O)c2cc(NC(=O)CCC(F)(F)F)ccc2O1`, inactive: 1.

For the molecule `O=C(C[C@@H]1CC[C@H](NC(=O)CN2CCOCC2)[C@H](CO)O1)NCCc1ccncc1`, the relative growth is inactive: 1.02. With `COCC(=O)N1CC[C@]2(CC1)CN([C@@H](CO)c1c2c2ccc(cc2n1C)OC)C(=O)Nc1ccccc1F`, the relative growth is inactive: 1.04. Take `C[C@H](CO)N1C[C@H](C)[C@@H](CN(C)C(=O)Nc2ccc(C(F)(F)F)cc2)Oc2c(NC(=O)Nc3ccccc3)cccc2C1=O`: the relative growth was inactive: 0.943. Regarding `O=C(C[C@@H]1C=C[C@@H](NC(=O)c2cccc(F)c2)[C@H](CO)O1)NCCN1CCCC1`, the relative growth was inactive: 1.02.

On to `Cc1noc(C)c1S(=O)(=O)Nc1cccc2c1O[C@H](CN(C)S(=O)(=O)c1ccc(F)cc1)[C@@H](C)CN([C@H](C)CO)C2=O`, for which the relative growth was inactive: 0.984. The figure for `COc1cccc(NC(=O)N(C)C[C@H]2Oc3cc(C#CC4(O)CCCC4)ccc3S(=O)(=O)N([C@@H](C)CO)C[C@H]2C)c1` is inactive: 0.977.

For `COc1ccc(S(=O)(=O)N(C)C[C@H]2Oc3c(cccc3N(C)C)C(=O)N([C@@H](C)CO)C[C@@H]2C)cc1`, the relative growth is inactive: 1.02.

With `COc1ccc(S(=O)(=O)N(C)C[C@@H]2Oc3c(NC(=O)Nc4cccc5ccccc45)cccc3C(=O)N([C@@H](C)CO)C[C@H]2C)cc1C`, the relative growth is inactive: 0.97. The figure for `CCCNC(=O)C[C@@H]1CC[C@@H]2[C@H](COC[C@H](O)CN2S(=O)(=O)c2ccc(Oc3ccccc3)cc2)O1` is inactive: 1.03; for `C[C@@H]1CN([C@@H](C)CO)C(=O)Cc2cc(NC(=O)Cc3ccccc3)ccc2O[C@H]1CN(C)Cc1ccc(-c2ccccc2)cc1` it is inactive: 0.978; for `O=C(O)CCCN1C(=O)CSC1=S` it is inactive: 0.972. The figure for `Cc1ccc(S(=O)(=O)Nc2ccc3c(c2)C(=O)N([C@H](C)CO)C[C@@H](C)[C@H](CN(C)C(=O)Nc2cccc4ccccc24)O3)cc1` is inactive: 1.02; for `N#C[C@@H]1N[C@H](CO)[C@@H]1c1ccccc1` it is inactive: 0.975; for `NC(=O)[C@H]1C[C@@H]2C=C[C@H]1C2` it is inactive: 0.999. The figure for `COC(=O)c1c2oc(c1C(=O)OC)C(=O)N(C)Cc1cn(nn1)C[C@@H](C)NC(=O)N[C@H](CO)CC2` is inactive: 0.987; for `O=C(Cc1ccncc1)NCC[C@H]1CC[C@H](NC(=O)C2CCOCC2)[C@@H](CO)O1` it is inactive: 1.01. Turning to `COc1ccc(S(=O)(=O)N(C)C[C@@H]2Oc3ccc(NS(=O)(=O)c4ccc(F)cc4)cc3CC(=O)N([C@H](C)CO)C[C@H]2C)cc1`, the relative growth was inactive: 0.995. For `Cc1noc(C)c1NC(=O)N(C)C[C@@H]1Oc2ccc(NC(=O)CCN3CCOCC3)cc2C(=O)N([C@@H](C)CO)C[C@@H]1C` the value was inactive: 1; for `C[C@H](CO)N1C[C@H](C)[C@H](CN(C)S(C)(=O)=O)Oc2ccc(NC(=O)CCC(F)(F)F)cc2C1=O`, inactive: 1.02; for `O=C(C[C@H]1C[C@H]2c3cc(NS(=O)(=O)c4ccc(F)cc4)ccc3O[C@H]2[C@@H](CO)O1)NC1CCCCC1`, inactive: 1.04. The figure for `COc1ccc(S(=O)(=O)N(C)C[C@@H]2Oc3ccc(N(C)C)cc3CC(=O)N([C@H](C)CO)C[C@H]2C)cc1` is inactive: 1.02; for `O=C1C(O)=C(O)C(=O)C(O)=C1O` it is inactive: 0.951; for `C[C@@H]1CCCCO[C@H](CN(C)C(=O)Nc2ccccc2)[C@H](C)CN([C@H](C)CO)C(=O)c2cc(NC(=O)Nc3ccccc3)ccc2O1` it is inactive: 1.03. For `C[C@@H]1CN([C@H](C)CO)C(=O)c2cccc(NS(=O)(=O)c3ccc(F)cc3)c2O[C@@H]1CN(C)S(=O)(=O)c1ccccc1` the value was inactive: 0.986. As for `C[C@@H]1CN([C@@H](C)CO)C(=O)c2cccc(NC(=O)c3cnccn3)c2O[C@H]1CN(C)S(=O)(=O)c1cccs1`, the relative growth is inactive: 1.01. The figure for `C[C@H](O)C#Cc1cnc2c(c1)C(=O)N([C@H](C)CO)C[C@H](C)[C@H](CN(C)Cc1cncnc1)O2` is inactive: 0.916; for `CCCNC(C)C(=O)Nc1ccccc1C.Cl` (stereo not drawn) it is inactive: 1.11. The figure for `c1ccc(Oc2nnc(-c3ccccc3)c3ccccc23)cc1` is inactive: 0.997. For `CC(C)N1CC2(CN([C@@H](C)c3ccc(Cl)cc3)C2)Oc2c(NC(=O)c3ccncc3)cccc2C1=O` the value was inactive: 1.01; for `C[C@@H]1CN([C@H](C)CO)C(=O)Cc2cc(NC(=O)CCCCCC(=O)Nc3ccccc3N)ccc2O[C@H]1CN(C)S(=O)(=O)c1cn(C)cn1`, inactive: 0.991. Take `COc1ccc(S(=O)(=O)Nc2ccc3c(c2)C(=O)N([C@@H](C)CO)C[C@@H](C)[C@H](CN(C)C(=O)C2CCCCC2)OCCCC[C@@H](C)O3)cc1`: the relative growth is inactive: 0.945. For `C[C@@H]1CCCCO[C@@H](CN(C)Cc2ccncc2)[C@H](C)CN([C@@H](C)CO)C(=O)c2cc(NC(=O)CCCCCC(=O)Nc3ccccc3N)ccc2O1` the value was inactive: 0.96; for `Cc1ccc(S(=O)(=O)N(C)C[C@@H]2OCCCC[C@@H](C)Oc3ccc(NC(=O)C4CCCCC4)cc3C(=O)N([C@@H](C)CO)C[C@H]2C)cc1`, inactive: 1.01; for `COc1ccc(S(=O)(=O)Nc2ccc3c(c2)C(=O)N([C@H](C)CO)C[C@H](C)[C@H](CN(C)C(=O)Nc2ccc(F)cc2)OCCCC[C@H](C)O3)cc1`, inactive: 0.985.

With `COc1ccc(S(=O)(=O)Nc2cccc3c2O[C@H](CN(C)S(=O)(=O)c2ccc(C)cc2)[C@H](C)CN([C@H](C)CO)C3=O)cc1`, the relative growth is inactive: 1.01. For `C[C@H]1CN([C@@H](C)CO)S(=O)(=O)c2ccc(C#Cc3ccncc3)cc2O[C@@H]1CN(C)C(=O)c1ccncc1` the value was inactive: 0.999.
